Data on 45 compounds can be found in publication PMC4336329 (PLoS ONE, 2015).

Out of some 310,000 compounds screened, about 14,000 (4.5%) showed an effect of 50% or more. The effect is printed as a negative number. The list shows a part of the results.
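Note: peak tail current of the secondary pulse compared with the same well before compound.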

Sequence of human ether-à-go-go-related gene (hERG) potassium channel (Q12809 whole entry, looked up): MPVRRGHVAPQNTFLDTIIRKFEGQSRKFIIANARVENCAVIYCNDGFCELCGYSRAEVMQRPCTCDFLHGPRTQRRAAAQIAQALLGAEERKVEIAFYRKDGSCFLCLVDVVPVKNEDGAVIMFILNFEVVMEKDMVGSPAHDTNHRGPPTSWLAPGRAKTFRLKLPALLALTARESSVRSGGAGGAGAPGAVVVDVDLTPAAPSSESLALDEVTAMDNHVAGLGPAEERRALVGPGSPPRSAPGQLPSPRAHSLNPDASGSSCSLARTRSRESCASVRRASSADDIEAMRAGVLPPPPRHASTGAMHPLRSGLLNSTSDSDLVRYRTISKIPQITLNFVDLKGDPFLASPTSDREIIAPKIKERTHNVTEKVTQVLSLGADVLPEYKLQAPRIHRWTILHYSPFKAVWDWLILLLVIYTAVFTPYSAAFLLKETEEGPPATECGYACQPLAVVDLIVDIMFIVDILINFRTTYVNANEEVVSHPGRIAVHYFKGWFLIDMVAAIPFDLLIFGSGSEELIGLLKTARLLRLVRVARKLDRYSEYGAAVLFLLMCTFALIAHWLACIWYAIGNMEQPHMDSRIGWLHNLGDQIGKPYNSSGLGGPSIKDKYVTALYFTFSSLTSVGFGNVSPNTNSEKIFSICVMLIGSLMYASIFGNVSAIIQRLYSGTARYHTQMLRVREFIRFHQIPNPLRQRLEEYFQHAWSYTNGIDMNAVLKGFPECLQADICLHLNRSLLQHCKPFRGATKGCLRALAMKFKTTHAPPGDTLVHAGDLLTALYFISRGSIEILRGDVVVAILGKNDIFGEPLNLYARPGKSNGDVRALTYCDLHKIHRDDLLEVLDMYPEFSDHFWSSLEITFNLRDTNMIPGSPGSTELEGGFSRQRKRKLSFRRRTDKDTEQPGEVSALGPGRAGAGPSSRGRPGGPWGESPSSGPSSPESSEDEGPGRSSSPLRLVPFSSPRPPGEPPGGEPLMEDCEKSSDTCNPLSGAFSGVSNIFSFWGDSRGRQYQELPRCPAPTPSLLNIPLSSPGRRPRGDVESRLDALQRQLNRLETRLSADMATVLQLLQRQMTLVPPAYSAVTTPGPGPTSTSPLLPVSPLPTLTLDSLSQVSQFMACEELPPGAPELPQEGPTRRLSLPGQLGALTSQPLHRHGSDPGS

This assay has as its target human ether-à-go-go-related gene (hERG) potassium channel (human, UniProt Q12809). Nature of the assay: primary screen, population patch clamp on CHO cells stably expressing hERG.
`Cc1ccc(N2CC(C(=O)Nc3cccnc3)CC2=O)cc1Cl` (stereo not drawn): the “hERG current change (%, negative = inhibition) at 10uM” value is reported as 11.7%.
Consider `COC(=O)c1[nH]nc2c1C(=O)N(C1CCCCC1)C2=O`, for which the “hERG current change (%, negative = inhibition) at 10uM” value is 2.56%.
In the case of `COc1ccc(NC(=O)Nc2cc(C)ccc2OC)cc1`, the “hERG current change (%, negative = inhibition) at 10uM” value is given as -10.4%.
The figure for `Fc1ccc(-c2nnn(Cc3nc4ccccc4s3)n2)cc1` is -11.2%.
Consider `COc1ccc(C(=O)/C=C/Nc2ccc(S(=O)(=O)Nc3onc(C)c3C)cc2)cc1`, for which the “hERG current change (%, negative = inhibition) at 10uM” value was determined as 33.4%.
As to `CCOC(=O)C1CCN(C(=O)CCC(=O)NNc2nc3ccccc3c3nc(C)nn23)CC1`, the “hERG current change (%, negative = inhibition) at 10uM” value came out at 6.91%.
The same measure for `CNC(=O)/C(C#N)=C/c1ccc(-c2ccc(OC)cc2[N+](=O)[O-])o1`: -1.67%; for `COc1ccccc1N=Nc1[nH]c2ccc(C)cc2c1O`: 5.92%; for `Cc1ccc(NC(=O)CCN2CCC(C)CC2)cc1.Cl`: 18.6%.
Turning to `Clc1ccc(-c2c[nH]c3ccccc23)nn1`, the “hERG current change (%, negative = inhibition) at 10uM” value amounted to 21.1%.
`CN(C)c1ccc(P(=O)(OCc2ccccc2)C(O)c2ccccc2)cc1` (stereo not drawn): the “hERG current change (%, negative = inhibition) at 10uM” value is on record as -6.46%.
The figure for `O=C(Nc1ccccc1NC(=O)c1ccccc1F)c1ccccc1F` is 12.5%.
`CN=C(Nc1ccccc1)SC1CC(=O)N(c2cccc(OC)c2)C1=O` (stereo not drawn): the “hERG current change (%, negative = inhibition) at 10uM” value is listed as -4.54%.
For the compound `COc1ccc(N2C(=O)CC(NNC(=O)c3ccco3)C2=O)cc1` (stereo not drawn), the “hERG current change (%, negative = inhibition) at 10uM” value is reported as 9.7%.
As to `O=C(CSc1nnc(COc2ccccc2Cl)o1)NC(=O)NCc1ccco1`, the “hERG current change (%, negative = inhibition) at 10uM” value is recorded as -8.18%.
Consider `COc1cc(NC(=O)c2ccco2)c(C(=O)OCC(=O)Nc2ncc(Cl)cc2Cl)cc1OC`, for which the “hERG current change (%, negative = inhibition) at 10uM” value is 7.81%.
Consider `CCn1nc(NC(=O)c2ccncc2)c2cc3cccc(C)c3nc21`, for which the “hERG current change (%, negative = inhibition) at 10uM” value was 20.6%.
As for `COC(=O)c1sc(N2C(=O)C(O)=C(C(=O)c3ccc(C)o3)C2c2ccco2)nc1C` (stereo not drawn), the “hERG current change (%, negative = inhibition) at 10uM” value is recorded as -4.73%.
Turning to `O=P(Nc1cccnc1)(Oc1ccccc1Cl)Oc1ccccc1Cl`, the “hERG current change (%, negative = inhibition) at 10uM” value was -11%.
The same measure for `CC(=O)N=C1SC2CS(=O)(=O)CC2N1c1ccc(-c2nc3ccc(C)cc3s2)cc1` (stereo not drawn): 8.72%; for `CCOC(=O)CSc1nc2c(c(=O)[nH]1)C(C)(CC)Cc1ccccc1-2` (stereo not drawn): -4.76%.
With `COc1cccc(C(=O)Nc2ccc(NC(=O)Cc3ccccc3)cc2)c1`, the “hERG current change (%, negative = inhibition) at 10uM” value is -24.1%.
The same measure for `CCCc1cc(=O)[nH]c(SCC(=O)Nc2cc3c(cc2C(C)=O)OCO3)n1`: 18.2%; for `COc1ccc(C(=O)N(c2ccccc2)C2C=CS(=O)(=O)C2)cc1` (stereo not drawn): -2.2%.
The figure for `COc1ccccc1NC(=O)c1cc(C)oc1C` is 3.19%.
The same measure for `CCc1nn(-c2ccccc2)c(N)c1C#N`: -2.2%; for `COC(=O)c1ccc(C)c(NC(=O)c2nn(C)c(=O)c3ccccc23)c1`: 5.75%.
Regarding `CC1CCc2cc(F)ccc2N1C(=O)C1(C)CC1(Cl)Cl` (stereo not drawn), the “hERG current change (%, negative = inhibition) at 10uM” value worked out at 4.51%.
As to `CCSc1nnc(NC(=O)c2cc(-c3ccccc3O)n[nH]2)s1`, the “hERG current change (%, negative = inhibition) at 10uM” value was 3.44%.
Take `CCC(=O)NC(Nc1cc(C)cc(C)n1)(C(F)(F)F)C(F)(F)F`: the “hERG current change (%, negative = inhibition) at 10uM” value was found to be 9.81%.
The figure for `CCOC(=O)C1CCN(S(=O)(=O)c2cc3c(cc2C)NC(=O)CO3)CC1` is -54.9%; for `CC(C)C[C@H](NC(=O)CCn1nnc2ccccc2c1=O)C(=O)O` it is 1.62%; for `Nc1nc(Nc2cccc3ccccc23)nc(C2CCCC2=O)n1` (stereo not drawn) it is 12.2%.
The same measure for `COc1cc(NC(=O)c2ccccc2NS(=O)(=O)c2ccc(Cl)s2)cc(OC)c1`: 2.62%; for `O=C(O)CN=C1NC2(CCCC2)Cc2ccccc21`: 9.41%.
As for `CC(C)c1nnc(NC(=O)CCC(=O)N2CCN(c3ccccn3)CC2)s1`, the “hERG current change (%, negative = inhibition) at 10uM” value is recorded as -7.7%.
The same measure for `O=C(O)c1cccnc1-c1ncccc1C(=O)O`: 1.75%; for `Cc1ccc(S(=O)(=O)N/N=C\c2ccc([N+](=O)[O-])o2)cc1`: -2.21%; for `Cc1cc(C)n2nc(SCC(=O)N/N=C/c3ccccc3F)nc2n1`: 2.94%.
The same measure for `CSCC(C)N1CCC(n2nccc2NC(=O)CCCc2ccccc2)CC1` (stereo not drawn): -47.5%; for `CCCCS(=O)(=O)Nc1ccc(C)cn1`: 12.8%.
The same measure for `Cc1nn(CCC(=O)N2CCN(S(=O)(=O)c3ccccc3)CC2)c(C)c1C`: 4.03%; for `CCCSc1nc2ccccc2n1CC(=O)O`: 32.9%; for `CCCCOC(=O)Nc1cc(C)c(Cl)cc1OC`: -8.48%.
`O=C(c1cn2ccccc2n1)N1CCc2c([nH]c3ccccc23)C1c1ccccn1` (stereo not drawn): the “hERG current change (%, negative = inhibition) at 10uM” value is reported as -3.58%.
